# Laboratory results reported in PubChem BioAssay AID686979 (National Center for Advancing Translational Sciences (NCATS), 2013).
# Where “and” joins values, the source holds several entries; their conditions need not be identical. Equal values may be shown once. Out of some 420,000 compounds screened, about 50,000 (12%) were called active. This list was built around the results that the source calls inconclusive (neither active nor inactive); the mix of calls is not that of the screen. Calls follow the shape of the dose curve; as a rule, active = well fitted inhibition curve with a large enough effect; inconclusive = small, poorly fitted or top-dose-only effect; inactive = flat fitted curve, though single readings scatter. No potency is given beside an inconclusive call; the fits are too rough.
# Experiment: qHTS for Inhibitors of human tyrosyl-DNA phosphodiesterase 1 (TDP1): qHTS in cells in presence of CPT; also: nearly all actives have a fitted effect of over 55% in size
# Conditions: chicken DT40 Tdp1-/-;hTDP1 cells + 20 nM CPT, ATP luminescence, 48 h; activity change, negative = growth inhibition: at 46.2 µM (top of the series) unless noted
# Procedure, shortened: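 Chicken DT40 Tdp1-/- cells complemented with human TDP1, 400 cells/well, exposed to compounds plus 20 nM camptothecin for at least 48 h at 37 C; viability read as ATP content by CellTiter-Glo luminescence.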
# % is scaled to controls: 0 for no effect and ±100 for the full control effect; potency is read from the fitted curve at half-maximal effect; tags tell the direction and shape of the fitted curve.
Compound,"activity change, negative = growth inhibition",Potency
CCC(C#CCN1CCOCC1)(CC)OCCC#N,inconclusive: -31.4% [inhibitor],–
CCN(CC)c1ccc(/C=N/NC(=O)c2c[nH]c3ccccc23)cc1,–,"inconclusive [inhibitor, single point]"
COc1ccc(S(=O)(=O)N2CCC(C(=O)NC3(C)CCS(=O)(=O)C3)CC2)cc1OC (stereo not drawn),–,inactive
CCc1cccc(NC(=O)CCS(=O)(=O)c2cccc3nonc23)c1,–,inactive
COCCNC(=O)CSc1nc2cc(OC)c(OC)cc2c(=O)n1Cc1ccco1,–,"inconclusive [inhibitor, partial curve]"
CCCCNC1(C#N)CCN(Cc2ccccc2)CC1,–,inactive
O=C(CCN1C(=O)/C(=C/c2ccccc2F)SC1=S)Nc1cccnc1,–,"inconclusive [inhibitor, full curve, poor fit]"
NNC(=O)c1cc2c(s1)-c1cc(Cl)ccc1SC2,–,"inconclusive [inhibitor, single point]"
Cc1cc(C)c(C)c(S(=O)(=O)N2CCC(C(=O)N(C)Cc3nc4ccccc4c(=O)[nH]3)CC2)c1C,–,"inconclusive [inhibitor, single point]"
C#CCSc1nc(-c2ccccc2)cc(-c2ccccc2)c1C#N,–,"inconclusive [inhibitor, single point]"
COc1ccc(CCNc2ccc(C(=O)O)cc2[N+](=O)[O-])cc1OC,–,inactive
COc1ccc(-c2nc3ccc(Cl)cn3c2Cc2ccccc2C(F)(F)F)cc1OC,–,active: 18.4 µM
CCOC(=O)c1c(C)oc2c1c(C=NCC1CCCO1)c(O)c1ccccc12 (stereo not drawn),–,"inconclusive [inhibitor, single point]"
Cc1cccc(N/N=C/c2ccc(O)c(O)c2O)c1,–,"inconclusive [inhibitor, single point]"
COC(=O)c1ccc(CSc2nc(C)nc3sc(C)c(C)c23)o1,–,active: 14.6 µM
C/C=C/C1=CC(=O)C[C@H](c2ccc(F)cc2)C1,–,"inconclusive [inhibitor, single point]"
COc1cc(NS(=O)(=O)c2cc3c(cc2C)N(C)CCO3)cc(OC)c1OC,–,active: 20.6 µM
NNC(=O)c1nc[nH]c1C(=O)Nc1ccccc1,–,inactive
CSS(=O)(=O)c1cccc2cccnc12,–,active: 5.8 µM
CCOC(=O)c1ccc(NC(=O)CSc2nc(C)nc3c2c(=O)n(C)c(=O)n3C)cc1,–,"inconclusive [inhibitor, single point]"
O=S(=O)(c1ccc(-c2cc(C(F)(F)F)on2)s1)N1CCN(c2ccc(F)cc2)CC1,–,"inconclusive [inhibitor, single point]"
CCc1ccccc1OCCOc1ccc(C)cc1OC,–,"inconclusive [inhibitor, single point]"
OC(c1ccc(F)cc1)c1ncc(-c2ccc3ccccc3c2)[nH]1 (stereo not drawn),–,"inconclusive [inhibitor, single point]"
CN(C)S(=O)(=O)Oc1cccc(C(=O)Nc2cccc(Cl)c2)c1,–,active: 14.6 µM
O=C(c1cc(C(F)(F)F)cc(C(F)(F)F)c1)N1CCC2(CC1)CN(c1ncccn1)C2,–,"inconclusive [inhibitor, partial curve, poor fit]"

Compound,"activity change, negative = growth inhibition",Potency
CCc1ccc(NC(=O)Cn2nnc(C(=O)NCc3cccs3)c2N)cc1,–,inactive
O=C(CN1CCCc2ccccc21)N/N=C/c1ccc(F)cc1F,–,active: 20.6 µM
COc1cccc(/C=N/NC(=O)C(C)n2nc(C)c([N+](=O)[O-])c2C)c1O (stereo not drawn),–,active: 0.92 µM
Clc1ccc2nc(-c3ccccc3)c(CN3CCOCC3)n2c1,–,"inconclusive [inhibitor, single point]"
Cc1cc(C)nc(/N=C(\N)Nc2ccc(OCCC(C)C)cc2)n1,–,active: 9.2 µM
CC1(C)C2CCC13CS(=O)(=O)NC3C2 (stereo not drawn),–,inactive
C#C[C@]1(O)CC[C@H]2[C@@H]3CCc4cc(OC5CCCC5)ccc4[C@H]3CC[C@@]21C,–,active: 9.2 µM and active: 13.3 µM
COC(=O)C1=CN(c2cccc(OCc3ccccc3)c2)C(N)=C(C#N)C1c1ccccc1 (stereo not drawn),–,"inconclusive [inhibitor, single point]"
CC1=C(c2ccc(C(C)C)cc2)S(=O)(=O)NC1=NCCCN1CCN(c2ccccc2F)CC1,–,"inconclusive [inhibitor, single point]"
Cc1ccc(NC(=O)C2CCN(S(=O)(=O)c3ccc4c(c3)OCCO4)CC2)c(O)c1,–,inactive
Cc1cc(C)nc(N(C#N)CCOc2ccccc2)n1,–,"inconclusive [inhibitor, single point]"
O=C(NCC1CCCO1)c1ccc(N2CCCCC2)nc1 (stereo not drawn),–,"inconclusive [inhibitor, single point]"
Cc1ccc2c(c1)N(CC(=O)NCc1ccco1)C(=O)CO2,–,"inconclusive [inhibitor, single point]"
OCCNCCCCSc1ccc(Cl)cc1,–,"inconclusive [inhibitor, single point]"
CCn1c(SCC(=O)N2CCN(c3ccccc3)CC2)nnc1-c1c[nH]c2ccccc12,–,active: 20.6 µM
COc1cc(NC(=O)COC(=O)c2ccc(C)c(S(=O)(=O)N3CCCCC3)c2)c(C)cc1[N+](=O)[O-],–,"inconclusive [inhibitor, single point]"
CCn1cc(C(=O)N2CCN(c3cccc(Cl)c3)CC2)c2cc(OC)c(OC)cc2c1=O,–,active: 16.4 µM
Cc1ccc(CN2CCc3nc(Nc4ccc5c(c4)OCCO5)ncc3C2)cc1,–,"inconclusive [inhibitor, single point]"
CC1C(=O)N2CCCc3cc(S(=O)(=O)NCCc4ccccc4)cc1c32 (stereo not drawn),–,"inconclusive [inhibitor, partial curve]"
CCS(=O)(=O)N1CCc2cc(C(=O)Nc3ccc(C(=O)OC)cc3)ccc21,–,"inconclusive [inhibitor, partial curve]"
N#Cc1ccc(-c2nc3ccc(Cl)cn3c2Cc2cccc(F)c2)cc1,–,"inconclusive [inhibitor, single point]"
CCCN1CCC(NC(=S)Nc2ccc([N+](=O)[O-])cc2)CC1,–,"inconclusive [inhibitor, single point]"
Cc1ccc(NC(=O)Cn2c(=O)c3ccccc3n3nncc23)cc1,–,inactive
Cc1ccc(OCCC(=O)Nc2cc(S(=O)(=O)N3CCOCC3)ccc2N2CCCC2)cc1,–,"inconclusive [inhibitor, single point]"
Cc1oc(-c2cccs2)nc1CN1CCC(c2ccccc2)CC1,–,inactive

Compound,"activity change, negative = growth inhibition",Potency
O=C(CCN1C(=O)S/C(=C\c2ccccc2)C1=O)NCCCn1ccnc1,–,"inconclusive [inhibitor, single point]"
CCSc1oc(-c2ccco2)nc1S(=O)(=O)c1ccc(Br)cc1,–,"inconclusive [inhibitor, single point]"
CC(=O)c1ccc(Nc2nc3c(S(=O)(=O)c4ccccc4)nnn3c3ccc(Cl)cc23)cc1,–,"inconclusive [inhibitor, partial curve]"
Cc1nnc(SCC(=O)N(C)c2ccccc2)n1-n1cccc1,–,inactive
Cc1cc2c(SCc3ccccc3Cl)nc(N)nc2nc1C,–,inactive
CCN1CCN(c2ccc(NC(=O)c3ccc4c(c3)[nH]c(=O)n4Cc3ccc(OC)cc3)cc2)CC1,–,active: 23.1 µM
OC(CNC1CCCC1)COCCOc1ccc(Br)cc1 (stereo not drawn),–,"inconclusive [inhibitor, single point]"
O=C(Nc1cccc(F)c1)Nc1ccccn1,–,inactive
CC(=O)OCC1OC(n2c(S)c(C#N)c(-c3ccccc3)c(C#N)c2=O)C(OC(C)=O)C(OC(C)=O)C1OC(C)=O (stereo not drawn),–,"inconclusive [inhibitor, partial curve]"
O=[N+]([O-])c1ccc(Nc2nc(NCCN3CCOCC3)nc(Nc3ccc(Cl)cc3)n2)cc1,–,active: 14.1 µM
NC(N)=N/N=C/c1ccc(Cl)cc1Cl,–,active: 16.4 µM
CCN(CC)S(=O)(=O)c1ccc(C)c(NC(=O)COc2ccc3c(C)cc(=O)oc3c2)c1,–,"inconclusive [inhibitor, single point]"
Cc1ccc(NC(=O)c2cc([N+](=O)[O-])ccc2NCc2cccnc2)cc1,–,inactive
Cc1[nH]c(=O)c(C#N)cc1-c1ccncc1,–,"inconclusive [inhibitor, partial curve]"
COc1cc2nc(CN3CCN(S(=O)(=O)c4c(F)cccc4F)CC3)[nH]c(=O)c2cc1OC,–,inactive
COC(=O)CCNC(=O)NC(CCC(C)C)c1c(-n2cccc2)sc2c1CCN(C)C2 (stereo not drawn),–,"inconclusive [inhibitor, single point]"
O=C1CCCN1c1ccc(S(=O)(=O)Oc2ccc(Cl)cc2)cc1[N+](=O)[O-],–,active: 20.6 µM
CCN1c2ccccc2-c2nc(SCC(=O)NCc3ccccc3)ncc2S1(=O)=O,–,active: 18.4 µM
O=c1c2ccccc2oc2ccc(-c3ccoc3)cc12,–,inactive
CCCNC(=O)[C@H]1O[C@@H]1C(=O)N[C@H](C(=O)N1CCC[C@H]1C(=O)OC)[C@@H](C)CC,–,active: 1.92 µM
COc1cc(OC)cc(-c2sc3ccc(OC)cc3c2-c2ccc3cc[nH]c3c2)c1,–,inactive
CCOc1ccc(Cl)cc1CNCCCSc1nc(C)cc(C)n1,–,"inconclusive [inhibitor, single point]"
Cc1ccccc1NC(=O)COC(=O)COc1ccc2ccc(=O)oc2c1,–,inactive
